The other results are listed elsewhere or left out. The main result of the screen is listed elsewhere. These columns were measured beside it and carry no call. The list favours compounds with an active or inconclusive main result.

This experiment in a line: growth inhibition of WT strain, primary screen, mitochondrial fusion inhibitor project, WT and mutant strains, chemical genetic (AID 1362). Further: tested in S. cerevisiae. The note with it: mitochondrial fusion phenotypic screen, at 10 µM.
With `Oc1cccc(C(O)CNCc2ccc(OCc3ccc(Cl)cc3Cl)cc2)c1` (configuration not stated), the inhibition amounted to 30.4%.
In the case of `S=C(NCC1CCCO1)NC12CC3CC(CC(C3)C1)C2` (configuration not stated) it was 45.4%.
In the case of `C/C(=N\N=C(/N)SC1CC(=O)N(c2ccc(Cl)c(Cl)c2)C1=O)c1cccs1` (configuration not stated) it was 94.9%; in that of `Cc1cccc(/C(N)=N/OC(=O)N2c3ccccc3Sc3ccccc32)c1`, 53.5%.
The same measure for `Cc1ccc(-n2cc(-c3ccccc3)c3c(N4CCN(C)CC4)ncnc32)cc1`: 51.7%.
Consider `Nc1c(-c2ccccc2)c(CSc2nc3ccccc3[nH]2)nn1-c1cccc(Cl)c1`, for which the inhibition worked out at 27.2%.
In the case of `Cc1nc(NC(=O)c2ccccc2)sc1-c1csc(Nc2cccc(F)c2)n1` it was 14%.
In the case of `CC1(C)CC(CCN(Cc2ccccc2)C(=O)c2ccco2)(c2ccccc2)CCO1` (configuration not stated) it was 17.1%; in that of `CCOc1ccc(-c2[nH]ncc2Oc2ccccc2OCC)c(O)c1`, -6.53%; in that of `O=C(COC(=O)c1ccccc1[N+](=O)[O-])c1ccc(C2CCCCC2)cc1`, 23.4%.
For `COc1cccc(C(C)NC(=S)NCc2ccc(Cl)cc2)c1` (configuration not stated), the inhibition came to 37.1%.
As for `CCOC(=O)C1=C(NC(=S)NC(=O)c2ccccc2)c2ccccc2CC1C(C)C` (configuration not stated), the inhibition was found to be 28.9%.
In the case of `Cc1ccc(Sc2ccc(CN3CCCCC3)cc2[N+](=O)[O-])cc1` it was 47.9%; in that of `CCCCCCOc1ccc(NC(=O)CC2C(=O)N(CC)C(=S)N2Cc2ccco2)cc1` (configuration not stated), 20.4%; in that of `S=C(NCCC(c1ccccc1)c1ccccc1)Nc1cccc(Cl)c1`, 37.7%.
In the case of `O=C(c1ccc(C#Cc2ccccc2)o1)N1CCN(c2ccccn2)CC1` it was 32.3%; in that of `CCC(C)(C)c1ccc(OCCCC[n+]2ccc(C)cc2)c(C(C)(C)CC)c1`, 97.7%; in that of `COc1cccc(C2Nc3c(F)cc(Br)cc3C3C=CCC32)c1OC` (configuration not stated), 6.21%.
The same measure for `CC(=O)OCCCNc1cc(Sc2nc3ccccc3s2)c2nonc2c1[N+](=O)[O-]`: 92.6%; for `COc1ccccc1NC(=S)NC(=O)c1c(-c2ccccc2Cl)noc1C`: 36.6%; for `CC(=O)N1N=C(c2cccc(Cl)c2)OC1c1ccc(C(C)C)cc1` (configuration not stated): 48%.
On to `O=C1NN=C(c2ccc(Cl)cc2)CC1c1c[nH]c2ccccc12` (configuration not stated), for which the inhibition is 36.1%.
In the case of `CC(C)CNS(=O)(=O)c1ccc(S(=O)(=O)N2CCCN(Cc3ccccc3)C2)cc1` it was -3.95%.
For the molecule `CC(=O)Nc1sc2c(c1-c1nc3ccccc3s1)CCN(C(C)C)C2`, the inhibition worked out at 52.7%.
In the case of `CCOc1ccc(NS(=O)(=O)c2cnc(Cl)c(Cl)c2)cc1` it was -12.9%.
The same measure for `CC(/C=N/Nc1nc2ccccc2[nH]1)=C\c1ccccc1`: 88%; for `O=S(=O)(Nc1ccc(-n2cccc2)cc1)c1ccc(Cl)cc1Cl`: 84%.
The same measure for `Cc1nnc(NC(=O)c2sc3nc(-c4cccs4)cc(C(F)(F)F)c3c2N)s1`: 8.72%.
On to `COc1ccc(C(=O)Nc2ccccc2C(=O)N/N=C/c2cccc3ccccc23)cc1`, for which the inhibition turned out to be 60%.
The same measure for `CCc1ccccc1NC(=S)N=Nc1c(O)n(C)c2ccc(S(=O)(=O)N3CCOCC3)cc12`: 19.4%; for `CCCSc1ccc2nc(-c3ccccc3)cn2c1`: 60.6%.
Turning to `Cc1ccc(-c2cc3ccccc3nc2N2CCOCC2)cc1`, the inhibition was 54.3%.
Take `Cc1cc(C)c2sc(N(CCCN(C)C)C(=O)c3ccc(Br)s3)nc2c1`: the inhibition stood at 93.9%.
As for `N#Cc1c(NC(NC(=O)c2ccco2)C(=O)c2ccccc2)sc2c1CCCC2` (configuration not stated), the inhibition stood at 31.1%.
Turning to `Cc1ccc2nc(-c3ccc(NC(=O)CNC4CC4)cc3)sc2c1`, the inhibition worked out at 33.4%.
In the case of `O=c1cc2c(nn1Cc1ccccc1Cl)-c1ccccc1CC2` it was 28.6%; in that of `Cc1ccc(C(C)C)cc1OCC(=O)N/N=C/c1ccc2c(c1)OCCO2`, -1.75%.
In the case of `Nc1nc(-c2ccccc2)c(N=Nc2cccc3ccccc23)s1` it was 76.6%.
The same measure for `CN(C)CC(C(=O)c1ccccc1)c1ccccc1` (configuration not stated): 75.8%.
For `O=C(COc1ccc(Cl)cc1Cl)NNC(=S)Nc1ccc(F)cc1`, the inhibition was determined as 51.7%.
With `CCc1ccc(OCc2n[nH]c(=S)n2C(C)CCCC(C)C)cc1` (configuration not stated), the inhibition came out at 20.4%.
The same measure for `COc1ccccc1N1CCN(c2ncnc3c2oc2ccccc23)CC1`: 56.7%.
In the case of `COc1ccccc1NC(=S)N(Cc1ccccn1)Cc1ccccc1Cl` it was 23.4%.
As to `O=C(O)c1cc(-c2ccc(/C=N/Nc3ccc(Cl)cc3)o2)ccc1Cl`, the inhibition is 57.6%.
Turning to `CCC(C)NC(=S)N1CCN(C(c2ccccc2)c2ccccc2)CC1` (configuration not stated), the inhibition was 37.9%.
In the case of `N=c1c2c(n(Cc3ccc([N+](=O)[O-])cc3)c3c1CCC3)CCCC2` it was 57.3%; in that of `CCOC(=O)c1sc2nc(CSc3ccccc3)nc(N3CCC(C(N)=O)CC3)c2c1C`, -4.15%; in that of `CN1CCN(Cc2ccc(Sc3ccc(Cl)cc3)c([N+](=O)[O-])c2)CC1`, 81.5%.
In the case of `CC(=O)N(C)c1ccc(OCC(O)Cn2c3ccc(Cl)cc3c3cc(Cl)ccc32)cc1` (configuration not stated) it was -27.4%; in that of `CN(CC(=O)Nc1ccc(Cl)c(Cl)c1)C(=O)C12CC3CC(CC(C3)C1)C2`, 57%; in that of `c1ccc(-c2nc(N3CCCCC3)nc3ccccc23)cc1`, -13.6%.
In the case of `Cc1c(C(=O)NCc2ccc3c(c2)OCO3)oc2ccc(Br)cc12` it was 25.6%; in that of `CC(C)(C)CC(C)(C)NC(=O)Nc1cccc([N+](=O)[O-])c1`, 12.3%.
With `CSc1ccc(Cl)c(C(=O)NCCOc2cc(C(C)C)ccc2C)c1`, the inhibition stood at 23%.
In the case of `CC1CC2=C(NC(=S)NC2c2ccccc2F)/C(=C/c2ccccc2F)C1` (configuration not stated) it was 48.5%.
On to `CCOc1ccc(C(C(=O)NC2CCCC2)N(Cc2ccccc2)C(=O)c2nsc(Cl)c2Cl)cc1` (configuration not stated), for which the inhibition came to 3.08%.
In the case of `CCC(C)c1ccc(OCCn2ccnc2)cc1` (configuration not stated) it was 65.9%.
`COc1ccccc1CCN1C(=S)NC(C)(C)CC1(C)O` (configuration not stated): the inhibition was determined as 61.7%.
With `Cc1ccc(C(C)(C)C)c(OCCCn2ccnc2)c1`, the inhibition was found to be 64.4%.
In the case of `C(=C\c1ccccc1)/CN1CCN(C(c2ccccc2)c2ccccc2)CC1` it was 61.6%; in that of `CCCN1C(=O)/C(=C/c2ccc(N3CCCC3)c(C)c2)NC1=S`, 50.1%.
In the case of `C=C(C)COc1ccc(-c2[nH]ncc2-c2ccc(Br)cc2)c(O)c1` it was 91.1%; in that of `CCCCSCCCNC(=S)Nc1ccccc1C`, 68.5%; in that of `CCOC(=O)N1CCN(CC(O)COCCC23CC4CC(CC(C4)C2)C3)CC1` (configuration not stated), 55.1%.
In the case of `CC1CCC(C(C)C)C(OCC(O)CNC(C)c2ccccc2)C1` (configuration not stated), the inhibition worked out at 18%.
The same measure for `CCOc1ccc(C(=O)N/N=C(\c2ccccc2)c2ccccn2)cc1`: 47%; for `CCOC(=O)c1c(C)[nH]c(N=Nc2ccccc2C)c1C`: 71.7%; for `Cc1nnc(SCC(=O)Nc2cc(-c3cc(C)c(C)cc3C)nn2-c2ccccc2)s1`: 31.8%.
The same measure for `CCC(NS(=O)(=O)c1c(C)[nH]c(=O)[nH]c1=O)C12CC3CC(CC(C3)C1)C2` (configuration not stated): 6.44%; for `Cc1ccc(/C=C/C2=NN(Cc3ccccc3Cl)C(=O)CC2)cc1`: 30%; for `C(=N\Nc1nc2ccccc2[nH]1)/c1ccccn1`: 61.4%.
The same measure for `Cc1c2c(nc3ccccc13)CCC(C(C)(C)C)C2` (configuration not stated): 40.4%.
Consider `CCOC(=O)C1=NN(c2cccc(C)c2)C2(S1)SC(C(C)=O)=C(C)N2c1ccccc1` (configuration not stated), for which the inhibition was 23.8%.
Take `COc1ccc(-c2csc(Nc3ncccc3C)n2)cc1`: the inhibition stood at 72.3%.
In the case of `O=C(Nc1ccc(C(F)(F)F)cc1)c1cc(S(=O)(=O)NCC2COc3ccccc3O2)ccc1F` (configuration not stated) it was 26.2%; in that of `CN1CCN(CCCN2c3ccccc3Sc3ccc(C(F)(F)F)cc32)CC1`, 92.1%; in that of `CCCN1CCN(c2ncnc3scc(C4COc5ccccc5O4)c23)CC1` (configuration not stated), 31.5%.
`CCc1ccc(NC(=O)CSc2nc3ccccc3c(=O)n2CCCN2CCC(C)CC2)cc1`: the inhibition is 62.4%.
In the case of `COc1ccc(Cn2c(O)c(C=Nc3ccc(O)cc3)c3ccccc3c2=O)cc1` it was 16.6%.
Regarding `CCOC(=O)CC(=O)CSc1nc(-c2cccnc2)cc(C)c1C#N`, the inhibition is 4.46%.
In the case of `CC1CC(N(C(=O)c2ccccc2Cl)c2ccccc2)c2ccccc2N1` (configuration not stated) it was 36.8%.
The same measure for `Cc1cccc(C)c1N1CCN(c2ccc3nnc(C(F)(F)F)n3n2)CC1`: 54.3%.

By inhibition is commonly meant the change of the read-out against control, counted positive when it falls.

The values above are taken from PubChem BioAssay AID1362 (SRMLSC, 2008).
